Reference: the RNAGym collection of RNA variant scans (doi:10.7554/elife.90254)
Read counts are not given, so values of variants with three or more changes are uncertain.

B1: LINE1-mini (parent)
chain: GGCAGAGCUCAACACAGCGUGGCAAAGUGGCUGUGGCUAGACUGCC

Variants of: B1
Assay: self-cleavage, relative activity (ratio to wild type); higher = more cleavage; in vitro, sequencing; the parent is a self-cleaving ribozyme

Row | Variant | self-cleavage
1 | GGCAGAGCUCAACACAACGUGGCAAAGUGCCUGUGGCUUGACUGCC | 1.07
2 | GGUAGAGCUCAACUCAGCGUGUAAAAGUGGCUGUGGCUAGACUGCC | 0.59
3 | GGCAGUGGUCACCACAGCGUGGCAAAGUGGCUUUGGCUAGACUGCC | 0.02
4 | GACAGAGAUCAACACAGCCAGGCAAAGUGGCUGUGGAUAGACUGCC | 0.04
5 | GGCAGAGCUCAACACAGCGAGGCAAUGUGGCUUUGACUAAACUGCC | 0.05
6 | GGCAAGGCUCAACACAGCGUGGCAAAGUGGCUGUGGCUAGACUCCC | 0.08
7 | GACAGCGCUCAACACAGCGUGGCAAAGUGGAUGUGGCUAGACUGCC | 0.11
8 | GGCAGAGAUCAACAGAGCGUGGCAAUGUGGCUGUGGCUAGACUGCC | 0.05
9 | GGCAGAGCCCAACACAACGUGGCAAAGUCGCUCUGGCUACACUGCC | 0.01
10 | GCCAGAUCUGAACACAGCGUGGCAAAGUGGCUGUGGCUAGACUGCA | 0.02
11 | GACAGACCUCCACACAGCGUGGCAAAGUGGCUGUGGCUAUACUGCC | 0.04
12 | GACAGACCUCAACACAGCGUGGAAAAUUGGCUGUGGCUAUACUGCC | 0.25
13 | GGCAGAGCUCAACACACCGUGGCAAAGUGGAGGUGGCUAGAUUGCC | 0.09
14 | GGCAGAGCUCAACACAGCGUGGCAAAGUGGUUGUGGCUAACCUGCC | 0.02
15 | GGCAGAGCACAACACAGCGUGGCUCAGUGGCUGUGGCUAGACUGUA | 0.03
16 | GGCAGAGCUCAACACAGCAUGGCAAAUUGGCUGUGGUUAGACUGUC | 0.04
17 | GGCUGAGCUUAAUACAGCGUGGCAAAGUGGUUGUGGCCAGACUGUC | 0.06
18 | CGCAGAGCUCAACACAGCGUGGCAAAGUGGGUGCGGUUAGACUGCA | 0
19 | GGCAUAGCUCAACACAGCAUGGCAAAUUGAGUAUGGCUAGACUGCC | 0.05

Row | Variant | self-cleavage
20 | AGCCGAGCUCAUCACAGCGUGGCAAAGUGGCUGUUGCUAGACUGCC | 0.14
21 | GGCAUAGCUCACCACAGCGUGGCAAAGUGGCUGUGGCUAGACUACC | 0.01
22 | GGCAGUGCUCAACACAGCGUGACAAAGUGGCUGUGGCUAGAUUGAC | 0.24
23 | UGCAUAGCUCAACACAGCGUGGCAAAGUGGCUGUGGCUAGUCUGCC | 0.26
24 | GUCAGAGCUCAACACAGCGUGGCAAAGUUGCUGUGGCUUGACUGCC | 0.06
25 | GGCAGAGCUCAACACAGCAUGGCAAACUGGAUGUGGCUAGACUGCC | 0.78
26 | GGCAUAGCUCAACACAGCGUUUCAAAGUGGCUGUGGCUAGACUGCC | 0.11
27 | GGCCGAGCUCAACACAGCGUGGCUAAGUGGCCGUUGCUAGACUGCC | 0.29
28 | GGCAGAGCUGCAUACAGCGUGGCAAAGUGGUCGUGUCUAGAGUGCC | 0.01
29 | GGCAGAGCUCAACUCAGCGCGGCAAAGUGGCUGUGGCUAGGCUGCC | 0.04
30 | UGCGGAGCUCAACACAGCGUGGCAAAGUGGCUGUGGCUAGGCUCCC | 0.03
31 | GGCCGAGCUCAACUCAGCGUGGCAAAGUGGCGGUGGAUAGUCUGCC | 0.2
32 | GGCAGAGCUCAACCCAGCGUGGCACAGUAGCUGUGGUUAGACUGCC | 0
33 | GGCAGGGCUCAACACAGCUUGGUAAAGUGGCUGUGUCUAGACCGCC | 0
34 | GCCAGAGCUCAACACAACGUGGCAAAGUGGCUGUGACUAGACUGAC | 0.2
35 | GGCAGAGCUCAACACAGCGUGGCAUAGUGGCCGUCGCUAUACUGCU | 0.13
36 | GACAGAGCUCAACACAGCGUGGCAAAGUGGCGGUGGCUAGAUUGCC | 0.38
37 | GGCAGAUCUCAACACAGCGUGGCAAAAUGGCUCUGGCUAUACUGCC | 0.01
38 | AGCAGAGCUCAACACAGCGUUGGAAAGUGGCUGUGGCUAGAAUGCC | 0.01

Row | Variant | self-cleavage
39 | GGCAGAGCUAAACACAUCGUGGCAAAGUGGCUGUAGCUAGACUGAC | 0.03
40 | GGAAGAGCUCAACACAGCGUGGCAAAGUGGAUGUUGCUAGACUCCC | 0.19
41 | GGCAGAGCUCAACACAGGGUGGCAAAGCGGCAGUGGCUAGACUGCC | 0.06
42 | GGCAGAAAUCAAGACAGCUGGGCAAAGUGGCUGUGGCUAGACUGCC | 0.55
43 | GGCAGAGCUCAACAAAGCGGGACACAGUGGCUGUGGAGAGACUGCC | 0.02
44 | GGCAGAGCUCAACACAGCGAGGCAAAGUGGUUGUGGCUAGAUUGCC | 0.02
45 | GGCAGAGCUCAACACAGCGUGGCAGAGUGGCUGUAGCUAGACUACC | 0.07
46 | GGCAGAGCUCAACACAGCGUGGCAAAGUGACUGUGGCUAGAUUGAC | 0.41
47 | CGCAAAGCUCAAAACAGCGUGGCAAAGUGGCUGAGGGUAGACUGCC | 0.06
48 | GGCAGAACUCAACACUGCGUGGCAAAGUGGCUGUGUCUAGACUGCC | 0.13
49 | GGCAGAGCUCAACAUAGCGUGGCAUAGUGGCUGUGACUAGACUGCC | 0.11
50 | GGCAGAGAUCAACUCAGCGUGGCAAAGUGGCUGUGGCUAGACUGAC | 0
51 | GGCAGCGCUCAACACAGCGUGGCAAAAUAGCUGUGGCUAUACUGCC | 0.05
52 | GGCAGAGCUCAACACAGCUUGGCAAUGUGGCUGUGACUAGACUGCC | 0.04
53 | GGCAGAGCUCAACACAGCGUGGCAACGUGGCUGUGGCUAGACAGGC | 0.11
54 | GACAGAGCUCAACCCAGCGUUGCAAAGUGGCUGUGGCUAGAUUGCC | 0.1
55 | GGCAGAGCUCAACACAGGGUGGCACAGUAGCUGUGGCUAGACUGCC | 0.1
56 | GUCAGAGCUCAACACAGAGAGGCAAAGUGGCUGUGGCUAGACUGCC | 0.05
